This note sets out measurements from PubChem BioAssay AID488969 (Vanderbilt High Throughput Screening Facility, 2010).

Whole data set: some 110,000 compounds, median “z-score” near -0.1, cut for the highest 2% near 2. The list shows a part of the results.

The assay has as its target Metabotropic glutamate receptor 8 (Rattus norvegicus) (UniProt P70579). In words: rat mGluR8 modulators via GIRK flux, primary screen, cell-based, thallium flux, HTS (AID 488969). Conditions: HEK293 rat mGluR8, GIRK (G protein-gated inwardly rectifying potassium channel) thallium flux, FluoZin2; at 10 µM; stronger effect = higher value; submaximal glutamate (EC20) added with thallium.
Sequence of UniProt P70579 (P70579 whole entry, looked up): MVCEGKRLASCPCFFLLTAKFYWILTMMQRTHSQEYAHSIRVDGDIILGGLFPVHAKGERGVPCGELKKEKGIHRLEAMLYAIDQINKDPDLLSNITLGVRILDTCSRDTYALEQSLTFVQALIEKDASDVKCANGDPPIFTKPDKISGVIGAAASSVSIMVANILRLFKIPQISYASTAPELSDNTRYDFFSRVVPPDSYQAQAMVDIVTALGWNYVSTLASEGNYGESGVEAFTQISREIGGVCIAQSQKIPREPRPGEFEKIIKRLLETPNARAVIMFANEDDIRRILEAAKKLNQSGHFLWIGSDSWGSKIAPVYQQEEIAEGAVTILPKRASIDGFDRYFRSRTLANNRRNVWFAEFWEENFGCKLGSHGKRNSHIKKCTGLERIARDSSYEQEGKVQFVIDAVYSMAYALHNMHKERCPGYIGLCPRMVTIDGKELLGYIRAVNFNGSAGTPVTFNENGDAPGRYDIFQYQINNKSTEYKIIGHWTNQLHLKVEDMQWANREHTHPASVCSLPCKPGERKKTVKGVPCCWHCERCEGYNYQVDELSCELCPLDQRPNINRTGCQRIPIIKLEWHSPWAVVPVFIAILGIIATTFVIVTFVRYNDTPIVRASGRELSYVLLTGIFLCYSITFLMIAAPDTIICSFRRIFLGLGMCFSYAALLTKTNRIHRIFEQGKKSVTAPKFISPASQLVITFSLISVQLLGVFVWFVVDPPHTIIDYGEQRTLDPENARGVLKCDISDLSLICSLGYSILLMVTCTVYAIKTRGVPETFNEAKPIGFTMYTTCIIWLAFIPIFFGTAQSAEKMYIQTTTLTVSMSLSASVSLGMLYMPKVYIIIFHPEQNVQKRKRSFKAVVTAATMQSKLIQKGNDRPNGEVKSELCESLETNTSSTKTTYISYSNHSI
Consider `Nc1nc2c3ccccc3nc(Cc3ccccc3)n2n1`, for which the z-score is -0.0245.

In turn, `c1ccc(-c2cc3c(NCC4COc5ccccc5O4)ncnc3s2)cc1` (configuration not stated) yielded a z-score of -0.382. Next, `Cc1cccc(NC(=S)N2CCCCCC2)c1`: -0.151; `CSc1nsc(SC)c1NC(=O)N1CCCCC1`: 0.516; `COc1ccc(C2SCC(=O)N2c2nnc(C34CC5CC(CC(C5)C3)C4)s2)cc1` (configuration not stated): -0.937.

The compound `CC(=NCC1CCNCC1)C1=C(O)CC(C)(C)CC1=O` showed a z-score of 1.22. Regarding `COc1ccc(S(=O)(=O)N/N=C(/C)c2cccc(NC(=O)c3ccccc3Cl)c2)cc1`, the z-score is -0.264. On to `Cc1ccc(CCNC(=O)C2CCCN(C(=O)N(C)C)C2)cc1` (configuration not stated), for which the z-score was -0.337. Next, `COc1ccc(C(C)=O)cc1COC(=O)c1ccc2c(c1)OCO2`: -0.198; `COC(=O)c1c(NC(=O)c2ccco2)sc(C(=O)N2CCCC2)c1C`: -0.0976; `OCCn1c(SCCOc2ccccc2)nc2ccccc21`: -0.41. On to `CCCCc1ccc(N2C(=O)[C@@H]3C(CC(N)=O)NC4(C(=O)Nc5ccc(F)cc54)[C@@H]3C2=O)cc1` (some centres not stated), for which the z-score is -0.0237.

The compound `Cc1ccnc(SCC(=O)Nc2sc3c(c2C#N)CCC(C(C)(C)C)C3)n1` (configuration not stated) yielded a z-score of 0.249. Next, `COCP(=O)(c1ccccc1)c1ccccc1`: -0.437; `O=C1OC(OC(=O)c2ccccc2Br)C(N2CCOCC2)=C1Cl` (configuration not stated): -0.307; `COC(=O)c1sc2ccccc2c1NC(=O)c1cccs1`: -1.61. Next, `CS(=O)(=O)N(CC(=O)NCCC1=CCCCC1)C1CCCCC1`: 0.389; `COc1cc(-c2nc(-c3ccc(NC(=O)c4ccc5c(c4)OCO5)cc3)no2)cc(OC)c1OC`: 0.262. Next, `CCC(=O)Nc1ccc(S(=O)(=O)N2CCN(c3ccc(F)cc3)CC2)cc1`: 0.0336; `C=C1c2ccccc2NC(=O)N1c1ccc(C)cc1`: 0.102; `O=C(CSc1nnc(-c2cccs2)o1)NCC1CN(Cc2ccccc2)CCO1` (configuration not stated): 0.284. Turning to `CC(C)(CO)NCC(O)COc1ccc2c(c1)CCC2` (configuration not stated), the z-score turned out to be 0.00787. Next, `O=C(Cc1ccc(Br)cc1)NC1CCCCC1`: 0.571. Next, `O=C(NCC(=O)N(c1ccccc1)C(C(=O)NC1CCCC1)c1cccnc1)c1ccco1` (configuration not stated): -0.135; `COC(=O)c1cn(CC(=O)N2C(C)CCCC2C)c2ccccc12` (configuration not stated): 1.68; `COc1cccc(OC)c1OCCCSc1nc(C)cc(=O)[nH]1`: -0.254. Consider `CSc1ccccc1C(=O)NCc1ccc(S(N)(=O)=O)cc1`, for which the z-score is -0.0297.

As for `Cc1[nH]c2ccccc2c1NC(=O)CN1CCN(c2cccc(C(F)(F)F)c2)CC1`, the z-score was 0.104. `Cc1c(N(C)C(=O)C23CC4CC(CC(C4)C2)C3)c(=O)n(-c2ccccc2)n1C`: the z-score was -0.293. Next, `CCN(CC)S(=O)(=O)c1ccc(NC2c3ncccc3C(=O)N2Cc2ccccc2)cc1` (configuration not stated): 0.968; `COc1ccc(NS(=O)(=O)c2c(C)cc(C)cc2C)cc1`: 0.0676. On to `CCOC(=O)c1c(CN2CCOCC2)n(-c2ccccc2)c2cc(Br)c(OC)cc12`, for which the z-score is -0.0513. Next, `CSc1nc(SCCO)c2sc3nc(-c4ccco4)c4c(c3c2n1)CC(C)(C)OC4`: -0.485.

Compound `O=C(NCCC(=O)N1CCN(c2ncccn2)CC1)c1ccccc1Cl` showed a z-score of -0.316. Next, `COc1ccc(S(=O)(=O)N(C)CC(=O)N2CCCCC2)cc1Cl`: 0.326; `O=C(c1ccc(C#CC2(O)CCCCC2)cc1)N1CCOCC1`: 0.153; `Cc1cc([N+](=O)[O-])cnc1NC(C)c1ccccc1` (configuration not stated): -0.349. Next, `Cc1ccc(-c2nnc3c4ccccc4c(C)nn23)cc1S(=O)(=O)N1CCN(CCO)CC1`: -0.182; `Fc1ccc(C2CC(c3ccccc3)Nc3ncnn32)cc1` (configuration not stated): 0.0535; `COC(=O)C1=C(C)N(c2ccc(OC)cc2)C(=O)/C1=C\c1cccs1`: -0.311. Next, `COCCNCC#CCOc1ccc(OC)cc1`: 0.23; `CSc1cccc(NS(=O)(=O)c2ccc3c(c2)oc(=O)n3C)c1`: -0.281.

The compound `O=C(CN(c1ccc(F)cc1)S(=O)(=O)c1ccc2c(c1)OCCO2)Nc1cccnc1` registered a z-score of -0.892.

In the case of `Nc1nc(NC(=O)c2cccs2)nn1-c1ccccc1`, the z-score is -0.291. Next, `CCCn1nc(C(=O)Nc2nc3ccccc3[nH]2)c2ccccc2c1=O`: -0.611.

Turning to `Cc1ccc(S/C=C\C(=O)c2ccccc2)cc1`, the z-score was -0.193.

Compound `CCCOc1ccc(C(=O)NC(=S)Nc2nc3ccc(C)cc3s2)cc1` yielded a z-score of 0.077.

The compound `CCOC(=O)SC1=N/C(=C\c2ccc(N(C)C)cc2)C(=O)S1` displayed a z-score of 0.292. Next, `O=C1CC(NCCN2CCOCC2)C(=O)N1Cc1ccc(N2CCCC2=O)cc1` (configuration not stated): -0.398; `Cc1[nH]nc(Nc2ccccc2)c1[N+](=O)[O-]`: 0.301; `COC(=O)C1=C(C)Nc2c(c(=O)n(C)c(=O)n2C)C1c1ccncc1` (configuration not stated): -0.211. Consider `COc1ccc(/C=c2\sc3nc(-c4ccccc4OC)nn3c2=O)c(OC)c1`, for which the z-score is -0.0769.

In the case of `COc1ccc(-c2noc(CN(C)S(=O)(=O)c3ccc(C)cc3)n2)cc1`, the z-score was 0.0443. With `CCOC(=O)C1=C(C)N(C)C(C)=C(C(=O)OCC)C1c1ccc(C(=O)OC)cc1`, the z-score is -1.04. Next, `O=C(NCCN1CCCCC1)c1ccco1`: 0.151; `COc1ccccc1-c1n[nH]c(=S)o1`: 0.0112. Next, `CCn1c(SCc2nc(-c3ccccc3)no2)nnc1-c1cccs1`: 1.84; `CCC1OC2(C)OC(=N)C1(C#N)C(C#N)(C#N)C2c1ccccc1` (configuration not stated): 0.113. `CC(C)c1ccc(OC(=O)NCCO)cc1` gave a z-score of -0.0747. Regarding `CCCCN(C(=O)CN1C(=O)C2CC=CCC2C1=O)c1c(N)n(CCC)c(=O)[nH]c1=O` (configuration not stated), the z-score came out at 0.136. Next, `CC1=C(C(=O)Nc2ccc(F)c(F)c2)C(c2cccs2)NC(=S)N1` (configuration not stated): 0.000835; `O=C(CN1CCCc2ccccc21)N/N=C/c1ccccc1O`: 1.65. For `COc1ccc(S(=O)(=O)NC(C(C)C)C(C)C)cc1OC`, the z-score was found to be 0.101. Next, `O=S(=O)(/N=C(/Nc1ccc(F)cc1F)c1ccccc1)c1ccccc1`: -0.416; `CCn1ncc(CNC(=O)c2cccc([N+](=O)[O-])c2)c1C`: 0.262; `CCCNS(=O)(=O)c1ccc(OCC(=O)Nc2ccc3c(c2)OCCO3)cc1`: -0.104. Next, `CCC(=O)Nc1nc2n(n1)C(c1ccc(OC)cc1)C=C(c1ccccc1)N2` (configuration not stated): -1.32. Next, `CC(C)c1ccc(N2CCN(C(=O)c3ccccc3NC(=O)/C=C(\C(=O)O)c3ccccc3)CC2)cc1`: 0.109; `CC1CCC(NC(=O)c2ccc(S(C)(=O)=O)cc2)CC1` (configuration not stated): -0.338. `Cc1ccc(NC(=O)CS(=O)CC(=O)N(C2CCCC2)C(C)C(=O)NC2CCCCC2)cc1` (configuration not stated) gave a z-score of 0.257.

In the case of `CCN(CC)c1ncnc2ccc(Br)cc12`, the z-score was -0.899. Next, `CCOC(=O)c1cc2ccc(OC)c(OC)c2c(=O)s1`: -0.429; `Cc1cc(-c2ccccc2)nc(N2CCN(c3ccccn3)CC2)n1`: 0.785; `C/C(=N\NC(=O)Cn1nc(C)c(Br)c1C)c1cccs1`: 0.0221. For the compound `O=C(CSc1nc(-c2ccccc2)nc2ccccc12)Nc1nccs1`, the z-score was -0.148. Compound `COc1ccc(Br)cc1CNC(=O)CCc1nc(-c2ccc(C)cc2)no1` registered a z-score of 0.0151.

With `Cc1ccc(NC(=S)N2CCN(C3CCCCC3)CC2)cc1`, the z-score was -0.155. Next, `Cc1cc(NCc2ccccn2)ccc1Br`: -0.0909. `C=CCc1cc(Cl)ccc1OCCN(C)C` returned a z-score of -0.0592.

`COc1ccc2cc(CN(CC3CCCO3)S(=O)(=O)c3ccc(C(C)=O)cc3)c(=O)[nH]c2c1` (configuration not stated) had a z-score of -0.218. Take `Cc1cnc(NC(=O)C2COc3ccccc3O2)s1` (configuration not stated): the z-score came to 0.05. Next, `Cc1noc(C)c1COC(=O)C1COc2ccccc2O1` (configuration not stated): -1.17; `Cc1ccnc2nc(C(=O)Nc3cc(Cl)ccc3N3CCOCC3)nn12`: -0.144. Next, `CCCN1C(=O)/C(=C/c2cc(C)n(C)c2C)SC1=Nc1ccc(OCC)cc1`: -0.0737; `Cc1cc(Br)ccc1OCC(=O)NNC(=O)c1ccc(NC(=O)C2CC2)cc1`: 0.1. Next, `CC(/C=C1\SC(=S)N(NC(=O)c2ccc(O)cc2)C1=O)=C\c1ccccc1`: 1.8; `O=C(/C=C/Nc1ccccc1C(=O)O)c1cccs1`: -0.746; `CCSc1nncn1/N=C/c1ccc(OC)c(OC)c1`: -0.193. As for `Cc1cccc(NC(=O)CS(=O)(=O)c2c[nH]c3ccccc23)c1C`, the z-score came out at 0.0768. Next, `CCOC(=O)N1CCC(n2c(=S)[nH]c3ccccc3c2=O)CC1`: 0.582; `Cc1nn(CC(=O)Nc2cc(S(=O)(=O)N(C)C)ccc2Cl)c(C)c1[N+](=O)[O-]`: 0.164. Next, `COc1ccc(Cl)cc1S(=O)(=O)NCc1cccnc1`: -0.272.

On to `COc1ccc(C(=O)NN2C(=O)C3C(c4ccccc4)C=CC(c4ccccc4)C3C2=O)cc1` (configuration not stated), for which the z-score came to 0.257. The compound `CCC(SC1=N/C(=C/c2ccccc2)C(=O)N1c1ccccc1)C(=O)Nc1cc(C)on1` (configuration not stated) registered a z-score of 0.368. With `CCc1ccc(CC2S/C(=C(\C#N)C(C)=O)NC2=O)cc1` (configuration not stated), the z-score was 0.0174. The compound `COCCCNC(=S)NC1CCCCC1` showed a z-score of -0.306.

The compound `Cc1cccc(-n2cnc3cc(C(=O)N4CCc5ccccc54)ccc32)c1` gave a z-score of -0.779. Next, `Cn1cccc1/C=N/n1c(-c2ccc(Cl)cc2Cl)n[nH]c1=S`: 2.46; `CC(=O)c1ccc(N2CCN(C(=S)Nc3cc(C)ccc3C)CC2)cc1`: -0.28. Next, `O=C(N/N=C/c1cccc([N+](=O)[O-])c1)C1CC(=O)N(c2ccc(Cl)cc2)C1` (configuration not stated): -0.21; `COc1ccc(S(=O)(=O)N(CCc2ccccc2)CC(=O)O)cc1`: 2.73. Next, `O=C(CS(=O)(=O)c1cccc(C(F)(F)F)c1)Nc1ccccc1Cl`: -0.0983; `COc1ccc(N2CCC(CNC(=O)Nc3ccc(OC)cc3OC)C2)cc1` (configuration not stated): -0.293. Compound `COc1ccc(C=O)cc1OS(=O)(=O)c1ccccc1[N+](=O)[O-]` showed a z-score of -1.43. Next, `COc1cc(C(=O)CCN2CCC(c3ccccc3)C2)cc(OC)c1OC` (configuration not stated): 0.0939; `CCOc1cc(/C=C2\N=C(SCC)SC2=O)cc([N+](=O)[O-])c1OC(C)=O`: 1.03; `O=C(Nc1c2c(nc3ccccc13)CCCC2)c1ccccc1Br`: 0.168. In turn, `COc1ccc(-c2nn(-c3ccccc3)cc2C(=O)O)cc1` displayed a z-score of 0.313.

Turning to `Cc1cc2cc(CN(CC3CCCO3)C(=S)NCc3ccco3)c(=O)[nH]c2cc1C` (configuration not stated), the z-score was -0.0378. In turn, `CCc1ccc(S(=O)(=O)NCc2cn3ccccc3n2)s1` came in with a z-score of 0.184. Regarding `O=c1oc(Nc2ccccc2F)nc2ccccc12`, the z-score is -0.476. The compound `CN(C)CCNC(=O)CNC(=S)N(Cc1ccccc1)Cc1cccnc1` gave a z-score of 0.013.
